# Assay results: PubChem BioAssay AID504466 (National Center for Advancing Translational Sciences (NCATS), 2011)
# The campaign covered roughly 330,000 compounds. About 4,200 (1.3%) were called active. The inconclusive results got no clear call from the source; some entries with a clear call stand among them for comparison. The call rests on the fitted dose curve; in most records, active means well fitted activation curve with a large enough effect; inconclusive means small, poorly fitted or top-dose-only effect; inactive means no such curve, though single readings can be large or run the other way. A potency beside an inconclusive call is a rough fit, not a confirmed value.
# Test: qHTS screen for small molecules that induce genotoxicity in human embryonic kidney (HEK293T) cells expressing luciferase-tagged ELG1; further: nearly all actives have a fitted effect of over 60% in size; on activity change, positive = activation: % of control where 0% means no effect
# Conditions: HEK293T ELG1-luciferase reporter, luminescence, 16 h; series mostly up to 46 µM
# In short: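 Step 1: seed 2,000 HEK293T ELG1-luciferase cells per well. Step 2: add compound or DMSO, incubate 16 hr at 37 °C. Step 3: ONE-Glo, 30 min at room temperature, read luminescence.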
# Potency means the concentration at half of the fitted maximal effect; tags describe the fitted curve by direction and shape.
SMILES,Potency,"activity change, positive = activation"
CC(C)(C)c1ccc(SCCc2cccnc2)cc1,"inconclusive: 16.4 µM [activator, partial curve]",–
COc1ccc(NC(=O)CSc2c3c(nc4ccccc24)CCCC3)c(OC)c1,"inconclusive: 25.9 µM [activator, partial curve, poor fit]",–
CC(Sc1ncnc2sc(-c3ccccc3)cc12)C(N)=O (centres undefined),"inconclusive: 5.8 µM [activator, single point]",–
CC(=O)COc1ccc2c(C)c(C)c(=O)oc2c1,"inconclusive: 18.4 µM [activator, single point]",–
O=C(CN1CCN(c2ccccc2O)CC1)Nc1ccccc1C(=O)NCCc1ccccc1,inactive,–
CCn1ccc(C(=O)Nc2cccc(Cl)c2)n1,"inconclusive: 9.2 µM [activator, partial curve]",–
CCn1nnc2cc(C(=O)OCC(=O)N(C)Cc3cccc(F)c3)ccc21,inactive,–
Cc1ccsc1C(=O)NNC(=O)c1ccccc1F,"inconclusive: 18.3 µM [activator, partial curve]",–
COc1ccc(-c2cc(=O)c3cc(OC)ccc3o2)cc1,"inconclusive: 0.116 µM [activator, partial curve, poor fit]",–
CSCCC(NS(=O)(=O)c1ccc2c(c1)c(=O)n(C)c(=O)n2C)C(=O)NC1CCN(Cc2ccccc2)CC1 (centres undefined),inactive,–
NC1=NC(=Nc2ccc(S(N)(=O)=O)cc2)c2ccccc21,inactive,–
CCc1ccc(NC(=O)N2CCC(c3ccccc3)C2)cc1 (centres undefined),"inconclusive: 4.61 µM [activator, partial curve]",–
CC(OC(=O)Cc1n[nH]c(=O)c2ccccc12)C(=O)Nc1cccc([N+](=O)[O-])c1 (centres undefined),inactive,–
COc1ccc2nc(N3CCCC(O)C3)c(C#N)cc2c1 (centres undefined),"inconclusive: 20.6 µM [activator, partial curve, poor fit]",–
Cc1c(NS(=O)(=O)c2ccc(NCC3CCCO3)c([N+](=O)[O-])c2)c(=O)n(-c2ccccc2)n1C (centres undefined),inactive,–
O=C(O)c1ccccc1C(=O)NNc1ccc(Cl)cc1Cl,inactive,–
COc1ccc(NC(=O)c2cc3ccccc3o2)cc1OC,"inconclusive: 20.6 µM [activator, single point]",–
O=C(CCN1C(=O)c2ccccc2C1=O)Nc1ccc(-c2cn3ccsc3n2)cc1,"inconclusive: 16.4 µM [activator, partial curve, poor fit]",–
COc1ccccc1/C=N/NC(=O)C(=O)Nc1ccccc1OC(F)(F)C(F)F,"inconclusive: 23.1 µM [activator, partial curve, poor fit]",–
CN(C(=O)COC(=O)c1ccc2c(c1)OCO2)C1CCCCC1,"inconclusive: 23.1 µM [activator, partial curve, poor fit]",–
CC(C)(C)c1ccc(NC(=O)Nc2ccc(OCC(=O)N3CCOCC3)cc2)cc1,"inconclusive: 2.06 µM [activator, full curve, poor fit]",–
Cn1cc(S(=O)(=O)NC2CCCC2)c(=O)n(C)c1=O,inactive,–
Cc1ccc(-c2cc(C(=O)N3CCc4ccccc4C3)[nH]n2)cc1C,inactive,–
COc1ccccc1C(=O)Nc1nc2cc3c(cc2s1)OCCO3,active: 2.06 µM,–
Cc1ccc(C(=O)CNc2ccccc2)cc1,"inconclusive: 20.6 µM [activator, partial curve, poor fit]",–

SMILES,Potency,"activity change, positive = activation"
O=C(CSc1nc2ccccc2[nH]1)c1ccco1,"inconclusive: 23.1 µM [activator, partial curve, poor fit]",–
CCC(=O)Nc1cccc(-c2csc(-c3ccccc3)n2)c1,inactive,–
O=C(Nc1ccc2c(c1)OCO2)Nc1cnccn1,"inconclusive: 12.6 µM [activator, partial curve, poor fit]",–
COc1ccc(NC(=O)c2nnn(CC(=O)Nc3ccc4c(c3)OCO4)c2N)c(OC)c1,–,inactive: 1.13% [at 9.26 µM]
CCS(=O)(=O)N1CCCC(c2nc(-c3cccc(OC)c3)no2)C1 (centres undefined),active: 14.6 µM,–
COc1ccc(CCNC(=O)CCN2C(=O)c3cccc4cccc(c34)C2=O)cc1OC,inactive,–
Cc1c(C(=O)O)nnn1-c1ccccc1,inactive,–
CC(=O)Oc1oc(-c2ccccc2)nc1/C=N/c1ccccn1,"inconclusive: 11.6 µM [activator, partial curve, poor fit]",–
C=CCN1C(=O)CN=C1Nc1cc(C)ccc1C,"inconclusive: 32.6 µM [activator, partial curve, poor fit]",–
CC(C)c1ccc(-c2csc3ncnc(N4CCN(C)CC4)c23)cc1,inactive,–
CCCCc1nc(SCc2ccc([N+](=O)[O-])cc2)n[nH]1,inactive,–
CSc1nccc(-c2nn(-c3ccc(C)cc3)ccc2=O)n1,"inconclusive: 29.1 µM [activator, partial curve, poor fit]",–
O=C(CCCOc1ccc(Cl)cc1)N1CCCCCC1,active: 16.4 µM,–
CCOc1ccc(Nc2nc3ccccc3n3nnnc23)cc1,"inconclusive: 20.6 µM [activator, partial curve, poor fit]",–
CC(C)(CO)NC(=O)c1ccc2nc(Cc3cccc(Cl)c3)oc2c1,"inconclusive: 23.1 µM [activator, partial curve, poor fit]",–
O=C(Nc1ccc(N2CCN(C(=O)c3ccccc3F)CC2)cc1)c1ncn[nH]1,inactive,–
CC(=O)NC12CC3CC(C1)CC(C(=O)N(C)Cc1cccc(Cl)c1Cl)(C3)C2,inactive,–
COc1ccc(-c2csc(N3C(=O)CNC3=S)n2)cc1,active: 3.26 µM,–
CCc1ccc(-n2c(SCC(=O)c3ccc4c(c3)NC(=O)CO4)nc3ccccc3c2=O)cc1,"inconclusive: 20.6 µM [activator, partial curve, poor fit]",–
COc1cccc(/C=N/NC(=O)C(=O)N/N=C/c2cccc(OC)c2O)c1O,inactive,–
CCOc1ccc(/C=N/O)cc1,"inconclusive: 3.16 µM [activator, single point]",–
Oc1c(I)cc(Cl)c2cccnc12,"inconclusive: 32.6 µM [activator, partial curve, poor fit]",–
Cc1ccccc1OCC(=O)NC(=S)Nc1cccc2cc(O)ccc12,inactive,–
CC(OC(=O)c1ccc(S(=O)(=O)N2CCCCC2)cc1)C(=O)Nc1ccc(C(N)=O)cc1 (centres undefined),"inconclusive: 20.6 µM [activator, single point]",–
O=CN(/C=C1\Sc2ccccc2C1=O)Cc1ccccc1,"inconclusive: 13 µM [activator, partial curve]",–

SMILES,Potency,"activity change, positive = activation"
O=C(CSc1nnc(-c2ccccn2)o1)Nc1cccc(Cl)c1,inactive,–
O=C(OCC(=O)c1ccc(Cl)s1)c1ccc(CO)cc1,inactive,–
Cc1ccccc1OCCN1C(=O)c2ccccc2C1=O,"inconclusive: 8.2 µM [activator, partial curve, poor fit]",–
COc1cc2c(cc1OC)CC(=O)N(C)CC2,"inconclusive: 23.1 µM [activator, partial curve, poor fit]",–
COc1ccc(C(=O)Nc2ccccc2C(=O)O)cc1Cl,"inconclusive: 14.6 µM [activator, partial curve]",–
c1ccc2[nH]c(-c3ccnc4ccccc34)nc2c1,"inconclusive: 11.2 µM [activator, partial curve]",–
CN(CC(=O)Nc1ccc2c(c1)OCCO2)S(=O)(=O)c1ccc(F)cc1,"inconclusive: 11.6 µM [activator, partial curve, poor fit]",–
CN(C)c1cccc(C(=O)N/N=C/c2ccccc2F)c1,active: 1.03 µM,–
COC(=O)[C@]1(C)N[C@H](CN(C)C(=O)Nc2ccc(OC)cc2)[C@@H]2C(=O)N(Cc3ccccc3)C(=O)[C@@H]21,inactive,–
Cc1cccn2c(=O)c3cc(C(=O)NC(C)c4ccccc4)c(=N)n(CCCn4ccnc4)c3nc12 (centres undefined),inactive,–
Cc1ccc(NC(=O)O/N=C/c2ccc(F)cc2)cc1,"inconclusive: 29.1 µM [activator, partial curve, poor fit]",–
COc1ccc(/C=C2\CCc3ccccc3C2=O)cc1Cn1cccn1,"inconclusive: 7.31 µM [activator, partial curve]",–
Cc1ccc(NC(=O)C(=O)NCc2ccco2)c(C)c1,"inconclusive: 16.4 µM [activator, single point]",–
O=C(Cn1cc(C(F)(F)F)cc(Cl)c1=O)NCc1ccccc1,"inconclusive: 20.6 µM [activator, partial curve]",–
Cn1c(N)c(C(=O)COC(=O)c2ccc3ccccc3c2)c(=O)n(C)c1=O,inactive,–
C1=C(CCNc2ncnc3c2cnn3-c2ccccc2)CCCC1,active: 2.31 µM,–
COc1ccc(C=O)c2[nH]c3c(Cl)ncnc3c12,"inconclusive: 29.1 µM [activator, partial curve, poor fit]",–
CC(=O)c1cccc(NC(=O)C2C3C=CC(C4CC34)C2C(=O)O)c1 (centres undefined),inactive,–
Cc1csc(NC(=O)CSc2nsc(SCC(=O)Nc3nc(C)cs3)c2C#N)n1,"inconclusive: 2.31 µM [activator, full curve]",–
COc1ccccc1OCC(=O)Nc1cccc(N(C)S(C)(=O)=O)c1,inactive,–
COc1ccc(CCNC(=O)C(=O)NCC2OCCN2S(=O)(=O)c2ccc(Br)cc2)cc1OC (centres undefined),inactive,–
CC(=O)c1cccc(OCC(=O)c2cc(C)n(-c3cc(C)on3)c2C)c1,inactive,–
O=C(/C=C/N1CCOCC1)c1coc2ccccc12,"inconclusive: 13 µM [activator, partial curve]",–
COc1ccc(C(=O)Nc2ccc(SC(F)F)cc2)cc1,"inconclusive: 2.91 µM [activator, full curve, poor fit]",–
